Reference: the supplement of paper PMC4967469
IC50 is the fitted dose that halves viability relative to control wells, and lower means more sensitive; a fit beyond the top or the lowest dose is shown as a bound at that dose. AUC, from the same fit, is the share of area under the viability curve across the 256-fold dose range; the more sensitive the line, the further below 1. Any top dose called inferred is not printed in the source and was worked back from the curve model.

What follows are cell lines tested with N.N.[Cl][Pt][Cl] [Cisplatin] (assay: Viability of human cancer cell lines after 72 h of drug (GDSC screen)). Conditions: top dose inferred.
Procedure: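 Human cancer cell lines in 384-well plates, medium with 10% serum, drug for 72 h over a 256-fold dose range (nine 2-fold or five 4-fold steps up to the top dose). Adherent lines were fixed and stained with the nucleic acid dye Syto60, suspension lines read with resazurin; signal relative to control wells, capped at 0 and 100%. One two-parameter sigmoid per drug and line, fitted in a mixed model over all curves with the slope shared within a line.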

Q: How did the AUC turn out when “MIA-PaCa-2 (pancreas, adherent, top dose 10 µM)” was run?
A: The AUC was 0.631.

Q: And the IC50?
A: Its IC50 is 1.49 µM.

Q: With “MKN7 (stomach, adherent, top dose 10 µM)” as the cell line, how does the AUC read?
A: The AUC was 0.913.

Q: What about the IC50 of the same cell line?
A: Its IC50 is > 10 µM.

Q: For “MKN28 (stomach, adherent, top dose 10 µM)”, which AUC is on record?
A: The AUC was 0.931.

Q: What about the IC50 of the same cell line?
A: Its IC50 is > 10 µM.

Q: “ML-2 (acute myeloid leukaemia, suspension, top dose 10 µM)” was tested. Which AUC did it give?
A: The AUC was 0.903.

Q: And the IC50?
A: The IC50 was > 10 µM.

Q: How did the AUC turn out when “MLMA (hairy cell leukaemia, semi-adherent, top dose 10 µM)” was run?
A: The AUC was 0.868.

Q: And the IC50?
A: The IC50 was 9.29 µM.

Q: “MM1S (myeloma, suspension, top dose 10 µM)” was tested. Which AUC did it give?
A: Its AUC is 0.902.

Q: And the IC50?
A: Its IC50 is > 10 µM.

Q: “MMAC-SF (melanoma, adherent, top dose 10 µM)” was tested. Which AUC did it give?
A: Its AUC is 0.987.

Q: What about the IC50 of the same cell line?
A: Its IC50 is > 10 µM.

Q: How did the AUC turn out when “MN-60 (B-cell leukaemia, suspension, top dose 10 µM)” was run?
A: Its AUC is 0.987.

Q: What about the IC50 of the same cell line?
A: The IC50 was > 10 µM.

Q: Which AUC does the source give for “MOG-G-CCM (glioma, adherent, top dose 10 µM)” here?
A: The AUC was 0.797.

Q: And the IC50?
A: The IC50 was 5.67 µM.

Q: What does the source list for “MOG-G-UVW (glioma, adherent, top dose 10 µM)”?
A: AUC: 0.676; IC50: 1.91 µM

Q: For “MOLM-13 (acute myeloid leukaemia, suspension, top dose 6 µM)”, which AUC is on record?
A: Its AUC is 0.87.

Q: And the IC50?
A: Its IC50 is 4.98 µM.

Q: For “MOLM-16 (acute myeloid leukaemia, suspension, top dose 6 µM)”, which AUC is on record?
A: The AUC was 0.909.

Q: And the IC50?
A: Its IC50 is > 6 µM.

Q: “MOLP-8 (myeloma, suspension, top dose 6 µM)” was tested. Which AUC did it give?
A: The AUC was 0.915.

Q: And the IC50?
A: Its IC50 is > 6 µM.

Q: “MOLT-4 (lymphoblastic leukaemia, suspension, top dose 6 µM)” was tested. Which AUC did it give?
A: The AUC was 0.828.

Q: What about the IC50 of the same cell line?
A: Its IC50 is 2.81 µM.

Q: Which AUC does the source give for “MOLT-13 (T-cell lymphoblastic leukaemia, suspension, top dose 10 µM)” here?
A: The AUC was 0.988.

Q: What about the IC50 of the same cell line?
A: Its IC50 is > 10 µM.

Q: “MOLT-16 (T-cell lymphoblastic leukaemia, suspension, top dose 10 µM)” was tested. Which AUC did it give?
A: The AUC was 0.828.

Q: And the IC50?
A: The IC50 was 4.56 µM.

Q: How did the AUC turn out when “MONO-MAC-6 (acute myeloid leukaemia, suspension, top dose 10 µM)” was run?
A: Its AUC is 0.927.

Q: And the IC50?
A: Its IC50 is > 10 µM.

Q: What does the source list for “MPP-89 (mesothelioma, adherent, top dose 10 µM)”?
A: AUC: 0.798; IC50: 6.51 µM

Q: “MRK-nu-1 (breast, suspension, top dose 10 µM)” was tested. Which AUC did it give?
A: Its AUC is 0.989.

Q: What about the IC50 of the same cell line?
A: The IC50 was > 10 µM.

Q: What does the source list for “MS751 (cervix, adherent, top dose 10 µM)”?
A: AUC: 0.9; IC50: > 10 µM

Q: For “MS-1 (small cell lung carcinoma, suspension, top dose 10 µM)”, which AUC is on record?
A: The AUC was 0.988.

Q: What about the IC50 of the same cell line?
A: Its IC50 is > 10 µM.

Q: Which AUC does the source give for “MSTO-211H (mesothelioma, adherent, top dose 10 µM)” here?
A: Its AUC is 0.945.

Q: And the IC50?
A: The IC50 was > 10 µM.

Q: For “MV-4-11 (leukaemia, suspension, top dose 10 µM)”, which AUC is on record?
A: The AUC was 0.8.

Q: What about the IC50 of the same cell line?
A: Its IC50 is 3.88 µM.

Q: “MY-M12 (leukaemia, suspension, top dose 10 µM)” was tested. Which AUC did it give?
A: The AUC was 0.967.

Q: And the IC50?
A: The IC50 was > 10 µM.

Q: Which AUC does the source give for “MZ1-PC (pancreas, adherent, top dose 10 µM)” here?
A: Its AUC is 0.887.

Q: And the IC50?
A: The IC50 was > 10 µM.

Q: Which AUC does the source give for “MZ2-MEL (melanoma, adherent, top dose 10 µM)” here?
A: Its AUC is 0.644.

Q: What about the IC50 of the same cell line?
A: Its IC50 is 1.68 µM.

Q: “Mewo (melanoma, adherent, top dose 10 µM)” was tested. Which AUC did it give?
A: The AUC was 0.874.

Q: And the IC50?
A: The IC50 was > 10 µM.

Q: Which results are given for “Mo-T (hairy cell leukaemia, suspension, top dose 10 µM)”?
A: AUC: 0.81; IC50: 5.41 µM

Q: With “NALM-6 (B-cell leukaemia, suspension, top dose 10 µM)” as the cell line, how does the AUC read?
A: Its AUC is 0.901.

Q: What about the IC50 of the same cell line?
A: Its IC50 is 9.2 µM.

Q: Which AUC does the source give for “NAMALWA (Burkitt lymphoma, suspension, top dose 10 µM)” here?
A: Its AUC is 0.781.

Q: What about the IC50 of the same cell line?
A: Its IC50 is 3.46 µM.

Q: “NB1 (neuroblastoma, semi-adherent, top dose 10 µM)” was tested. Which AUC did it give?
A: Its AUC is 0.849.

Q: What about the IC50 of the same cell line?
A: Its IC50 is 8.75 µM.

Q: For “NB5 (neuroblastoma, adherent, top dose 10 µM)”, which AUC is on record?
A: Its AUC is 0.821.

Q: What about the IC50 of the same cell line?
A: Its IC50 is 5.9 µM.

Q: Which AUC does the source give for “NB6 (neuroblastoma, adherent, top dose 10 µM)” here?
A: The AUC was 0.971.

Q: What about the IC50 of the same cell line?
A: The IC50 was > 10 µM.

Q: Which results are given for “NB10 (neuroblastoma, adherent, top dose 10 µM)”?
A: AUC: 0.812; IC50: 5.19 µM

Q: For “NB12 (neuroblastoma, adherent, top dose 10 µM)”, which AUC is on record?
A: The AUC was 0.953.

Q: And the IC50?
A: The IC50 was > 10 µM.

Q: “NB13 (neuroblastoma, adherent, top dose 10 µM)” was tested. Which AUC did it give?
A: The AUC was 0.927.

Q: What about the IC50 of the same cell line?
A: Its IC50 is > 10 µM.

Q: How did the AUC turn out when “NB14 (neuroblastoma, adherent, top dose 10 µM)” was run?
A: The AUC was 0.895.

Q: What about the IC50 of the same cell line?
A: The IC50 was > 10 µM.

Q: For “NB17 (neuroblastoma, adherent, top dose 10 µM)”, which AUC is on record?
A: Its AUC is 0.928.

Q: And the IC50?
A: Its IC50 is > 10 µM.

Q: Which results are given for “NB69 (neuroblastoma, adherent, top dose 10 µM)”?
A: AUC: 0.864; IC50: 7.11 µM

Q: Which AUC does the source give for “NB(TU)1-10 (neuroblastoma, adherent, top dose 10 µM)” here?
A: Its AUC is 0.968.

Q: And the IC50?
A: Its IC50 is > 10 µM.

Q: How did the AUC turn out when “NB-4 (acute myeloid leukaemia, suspension, top dose 10 µM)” was run?
A: The AUC was 0.764.

Q: And the IC50?
A: The IC50 was 3.03 µM.

Q: For “NCC010 (kidney, adherent, top dose 10 µM)”, which AUC is on record?
A: The AUC was 0.914.

Q: And the IC50?
A: Its IC50 is > 10 µM.

Q: “NCC021 (kidney, adherent, top dose 10 µM)” was tested. Which AUC did it give?
A: Its AUC is 0.955.

Q: And the IC50?
A: The IC50 was > 10 µM.

Q: Which AUC does the source give for “NCI-H23 (lung adenocarcinoma, adherent, top dose 10 µM)” here?
A: Its AUC is 0.819.

Q: What about the IC50 of the same cell line?
A: The IC50 was 5.62 µM.

Q: Which results are given for “NCI-H28 (mesothelioma, adherent, top dose 10 µM)”?
A: AUC: 0.914; IC50: > 10 µM

Q: With “NCI-H64 (small cell lung carcinoma, suspension, top dose 6 µM)” as the cell line, how does the AUC read?
A: The AUC was 0.987.

Q: And the IC50?
A: Its IC50 is > 6 µM.

Q: What does the source list for “NCI-H69 (small cell lung carcinoma, suspension, top dose 10 µM)”?
A: AUC: 0.969; IC50: > 10 µM

Q: Which AUC does the source give for “NCI-H82 (small cell lung carcinoma, suspension, top dose 10 µM)” here?
A: Its AUC is 0.8.

Q: And the IC50?
A: The IC50 was 4.54 µM.

Q: “NCI-H146 (small cell lung carcinoma, suspension, top dose 6 µM)” was tested. Which AUC did it give?
A: The AUC was 0.986.

Q: What about the IC50 of the same cell line?
A: The IC50 was > 6 µM.

Q: For “NCI-H187 (small cell lung carcinoma, suspension, top dose 10 µM)”, which AUC is on record?
A: Its AUC is 0.935.

Q: What about the IC50 of the same cell line?
A: The IC50 was > 10 µM.

Q: Which results are given for “NCI-H209 (small cell lung carcinoma, suspension, top dose 6 µM)”?
A: AUC: 0.329; IC50: 0.121 µM

Q: Which results are given for “NCI-H211 (small cell lung carcinoma, adherent, top dose 10 µM)”?
A: AUC: 0.945; IC50: > 10 µM

Q: Which results are given for “NCI-H226 (lung squamous cell carcinoma, adherent, top dose 10 µM)”?
A: AUC: 0.949; IC50: > 10 µM

Q: With “NCI-H292 (lung adenocarcinoma, adherent, top dose 10 µM)” as the cell line, how does the AUC read?
A: Its AUC is 0.966.

Q: What about the IC50 of the same cell line?
A: Its IC50 is > 10 µM.

Q: What does the source list for “NCI-H322M (lung adenocarcinoma, suspension, top dose 10 µM)”?
A: AUC: 0.963; IC50: > 10 µM

Q: With “NCI-H345 (small cell lung carcinoma, suspension, top dose 10 µM)” as the cell line, how does the AUC read?
A: The AUC was 0.976.

Q: What about the IC50 of the same cell line?
A: The IC50 was > 10 µM.

Q: For “NCI-H358 (lung adenocarcinoma, adherent, top dose 10 µM)”, which AUC is on record?
A: Its AUC is 0.939.

Q: And the IC50?
A: Its IC50 is > 10 µM.

Q: Which results are given for “NCI-H441 (lung adenocarcinoma, adherent, top dose 10 µM)”?
A: AUC: 0.962; IC50: > 10 µM
